Laboratory results reported in a collection of fitness landscapes (doi:10.1126/science.1257360).
The other results are listed elsewhere or left out.

B1: PhoQ; a variant is named by its letters at X, in order, P23837 (parent)
chain: MKKLLRLFFPLSLRVRFLLATAAVVLVLSLAYGMVALIGYSVSFDKTTFRLLRGESNLFYTLAKWENNKLHVELPENIDKQSPTMTLIYDENGQLLWAQRDVPWLMKMIQPDWLKSNGFHEIEADVNDTSLLLSGDHSIQQQLQEVREDDDDAEMTHSVAVNVYPATSRMPKLTIVVVDTIPVELKSSYMVWSWFIYVLSANLLLVIPLLWVAAWWSLRPIEALAKEVRELEEHNRELLNPATTRELTSLVRNLNRLLKSERERYDKYRTTLTDLTHSLKTPLXXLQXXLRSLRSEKMSVSDAEPVMLEQISRISQQIGYYLHRASMRGGTLLSRELHPVAPLLDNLTSALNKVYQRKGVNISLDISPEISFVGEQNDFVEVMGNVLDNACKYCLEFVEISARQTDEHLYIVVEDDGPGIPLSKREVIFDRGQRVDTLRPGQGVGLAVAREITEQYEGKIVAGESMLGGARMEVIFGRQHSAPKDE

Variants of: B1
Experiment: enrichment ratio after two sorts for PhoP signalling (ratio (wild type AVST 3.29)); higher = more functional
Settings: with PhoP (E. coli)

Variant	enrichment ratio
FCPK	≤ 0.25
SVFY	≤ 0.25
KMIT	≤ 0.25
GAVF	≤ 0.25
WIHN	≤ 0.25
FNKN	≤ 0.25
NIAW	≤ 0.25
IRNF	≤ 0.25
DHVW	≤ 0.25
HYWH	≤ 0.25
HHGP	≤ 0.25
AKKP	≤ 0.25
TVHL	3.57
YFDA	≤ 0.25
KLFH	≤ 0.25
PTMV	≤ 0.25
SKHV	≤ 0.25
WKPT	≤ 0.25
DCQM	≤ 0.25
MAAN	14.7
ITFG	≤ 0.25
SCLT	13.3
KLMI	≤ 0.25
RCSG	≤ 0.25
FCVQ	≤ 0.25

Variant	enrichment ratio
PNFY	≤ 0.25
QPYF	≤ 0.25
IKPT	≤ 0.25
AMPS	≤ 0.25
IRYS	≤ 0.25
KIWI	≤ 0.25
HWNW	≤ 0.25
MKMG	≤ 0.25
AKGI	≤ 0.25
HDCM	≤ 0.25
LFTW	≤ 0.25
AGRH	≤ 0.25
NGPW	≤ 0.25
FKYK	≤ 0.25
HCSL	≤ 0.25
LEIV	≤ 0.25
WGCR	≤ 0.25
LCHC	≤ 0.25
HTTQ	≤ 0.25
PEAV	≤ 0.25
FTGP	≤ 0.25
YHPP	≤ 0.25
IYHS	≤ 0.25
PFAM	≤ 0.25
IRVY	≤ 0.25

Variant	enrichment ratio
KCKV	≤ 0.25
MMQA	≤ 0.25
RGCD	≤ 0.25
HDFV	≤ 0.25
TPPR	≤ 0.25
YAHT	≤ 0.25
WAAK	≤ 0.25
IQHR	≤ 0.25
RRKN	≤ 0.25
DWRS	≤ 0.25
GHNW	≤ 0.25
YGKT	≤ 0.25
PTLV	≤ 0.25
RNYE	≤ 0.25
VEPQ	≤ 0.25
NCIR	≤ 0.25
HLTM	≤ 0.25
KVLI	≤ 0.25
QHRC	≤ 0.25
FLID	≤ 0.25
PLRY	≤ 0.25
WCIK	≤ 0.25
RLAH	≤ 0.25
AQSE	2.99
AFPF	≤ 0.25

Variant	enrichment ratio
FRVE	≤ 0.25
DNQF	≤ 0.25
PYAD	≤ 0.25
MPIF	≤ 0.25
VVLG	1.27
ICER	≤ 0.25
DCTD	≤ 0.25
ETGR	≤ 0.25
LLWQ	≤ 0.25
NSYH	≤ 0.25
PQEP	≤ 0.25
VMQS	≤ 0.25
WKFM	≤ 0.25
WPLC	≤ 0.25
QETG	≤ 0.25
NRTS	≤ 0.25
SKYP	≤ 0.25
AEIW	≤ 0.25
YEMT	1.98
IHFK	≤ 0.25
SYLV	0.334
TVHV	2.67
FNMQ	≤ 0.25
VHVC	≤ 0.25
SHAW	≤ 0.25

Variant	enrichment ratio
HCLS	≤ 0.25
RVDC	≤ 0.25
NWTF	≤ 0.25
EVKR	≤ 0.25
NCFA	≤ 0.25
IWSN	≤ 0.25
QKQI	≤ 0.25
QTGM	12
LPSL	≤ 0.25
PREQ	≤ 0.25
KVDW	≤ 0.25
AKMP	≤ 0.25
VALV	7.72
ETEV	≤ 0.25
SNEV	≤ 0.25
VVYF	≤ 0.25
PERC	≤ 0.25
DQQF	≤ 0.25
HEFS	≤ 0.25
GKGL	≤ 0.25
HASV	≤ 0.25
DVVH	≤ 0.25
QNLE	≤ 0.25
KSFM	≤ 0.25
ERVI	≤ 0.25

Variant	enrichment ratio
MRTY	≤ 0.25
RDET	≤ 0.25
QTLM	≤ 0.25
VYFT	≤ 0.25
NMWF	≤ 0.25
NIRF	≤ 0.25
QYWN	0.285
VNFH	≤ 0.25
ENHY	≤ 0.25
IHSQ	≤ 0.25
FEGC	≤ 0.25
MMKR	≤ 0.25
YLVN	≤ 0.25
PMHK	≤ 0.25
HSTG	≤ 0.25
LWLT	≤ 0.25
HFDC	≤ 0.25
VRRL	≤ 0.25
QFGD	≤ 0.25
HDWV	≤ 0.25
ANGI	22.1
ENLY	≤ 0.25
KDLN	≤ 0.25
PIRR	≤ 0.25
DELW	≤ 0.25

Variant	enrichment ratio
SSVL	13.8
PHMG	≤ 0.25
FFKF	≤ 0.25
AEQN	21.7
LTYF	≤ 0.25
YKFG	≤ 0.25
FQLC	2.14
GPGG	≤ 0.25
FRYN	≤ 0.25
RQWN	≤ 0.25
RGVY	≤ 0.25
HKWA	≤ 0.25
QEVP	≤ 0.25
PVLQ	≤ 0.25
PPYH	≤ 0.25
AFLH	≤ 0.25
IYMD	≤ 0.25
NRKS	≤ 0.25
WEML	≤ 0.25
GQNA	≤ 0.25
PHYM	≤ 0.25
RLGN	≤ 0.25
QERT	≤ 0.25
MKSS	≤ 0.25
DSLA	≤ 0.25

Variant	enrichment ratio
GVLG	8.66
GYKS	≤ 0.25
YKQG	≤ 0.25
HNVV	≤ 0.25
GTTY	0.902
WFTF	≤ 0.25
LFEK	≤ 0.25
NVLP	≤ 0.25
WDQN	≤ 0.25
QDYH	≤ 0.25
VSSK	≤ 0.25
DNFY	≤ 0.25
RMIC	≤ 0.25
MDAL	≤ 0.25
KEIY	≤ 0.25
YYYN	≤ 0.25
VCRD	≤ 0.25
TKVG	1.43
VYDA	≤ 0.25
KMHC	≤ 0.25
